From the RNAGym collection of RNA variant scans (doi:10.7554/elife.90254)
The source gives no read counts; variants with many changes may rest on few reads.

B1: LINE1-mini (parent)
chain: GGCAGAGCUCAACACAGCGUGGCAAAGUGGCUGUGGCUAGACUGCC

Variants of: B1
Test: self-cleavage, relative activity (ratio to wild type); higher = more cleavage; in vitro, sequencing; the parent is a self-cleaving ribozyme

Row | Variant | self-cleavage
1 | GGCAUAGCUCAACACAGCGUGGCAAAGUGGCUGUGGGUAGACUGCA [G5U C37G C46A] | 0.1
2 | GUCAGAGAGCGACACAGCGUGGCAAAGUGGCUGUGGCUACACCGCC [G2U C8A U9G A11G G40C U43C] | 0.02
3 | GGCAGAUCCUAACACUGCGUGGCAAAGUGGCUGUGGCUAGACUGCC [G7U U9C C10U A16U] | 0.02
4 | GGCAGUGCUUAACACAGCGUGGCAAAUUGGCUGUGGCUAGACUGCA [A6U C10U G27U C46A] | 0.3
5 | GGUAGAGCUCAACACAGCGUGGCAAAGUGGCAGUGGCUACACUGUC [C3U U32A G40C C45U] | 0.04
6 | UGCAUAGCUCCACACAGCGUCGCAAAGUGGCUGUGGCUAGACUGCC [G1U G5U A11C G21C] | 0.01
7 | GGCUGAGCUCAACACAGCGUGGCAAAGUGGCUGUGGCUGGACCGCC [A4U A39G U43C] | 0.01
8 | GGUAGAGCUCAACACUGCGUAGCAAAGUGGCUGUGGCGAGACUGCC [C3U A16U G21A U38G] | 0.05
9 | GGCACAGCUCUAGUCAGCGUGGCAAAGUGGCUGUGAGUAGACAGCC [G5C A11U C13G A14U G36A C37G U43A] | 0
10 | GGCAGUGCCCAACACAGCGUGGCAACGUGACUGUGGUUAGACUGCC [A6U U9C A26C G30A C37U] | 0.06
11 | GGCAGAGAUCAACACAGCGUGGCAAAGUGUCUGUGGCUAGACAGCC [C8A G30U U43A] | 0.15
12 | GGCGGAGCUCAAAGCAGCGUGGCAAAGUGGCUGUGGCUAGACUGCC [A4G C13A A14G] | 0.05
13 | GGCAGAACUCAACACAGCGUGGCACAGUCGCUGUGGCUAGACUGCC [G7A A25C G29C] | 0.05
14 | GGGAGAGCUCAACACAGCGUGGCAAAGUAGCUGUGGCUAGGCUGCU [C3G G29A A41G C46U] | 0.06
15 | GGCAGAGCUCAACACAGCGUGGCAGAGUGGCUGUGGCUAACCUGCC [A25G G40A A41C] | 0.03
16 | GGCAGAGCUCAAAAAAGUGUGGCAAAGUGACUGUGGCUAGACUGCC [C13A C15A C18U G30A] | 0.13
17 | GGCAGAGAUCAACCCAGCGUGGCAAAGUGUCUGUGGCUAGACUGCC [C8A A14C G30U] | 0.21
18 | GGCAAAGCACUACACAGCGUGGCAAAGUGGCUGUGUCUAGACUGCC [G5A U9A A11U G36U] | 0.01
19 | GGCAGAGCUCAACACGGCGUGGUAAAGUGGCUGUGGCUAGGCCGCC [A16G C23U A41G U43C] | 0.01

Row | Variant | self-cleavage
20 | GGAAGAGCUCAAGACUGCGUGGCAAAGUGGCUGUGGCUAGACUGAC [C3A C13G A16U C45A] | 0.17
21 | GGCAGAGCUCAACACAGCGCGGCAAAGUGGCUGGGGCUAGACUCGC [U20C U34G G44C C45G] | 0.03
22 | GUCAGAGCUCAACACAGCGUGGCAAAGUGGAUGUAUCUAGACUGCC [G2U C31A G35A G36U] | 0.04
23 | GGCAGAGCGCAACGCAGUGUGGCAAAGUGGCUGUGGCUAGACUGCC [U9G A14G C18U] | 0
24 | GGCAGAGCUCUACACCGCCUGGCAAAGUGGCUGUGGCUAGACUGCC [A11U A16C G19C] | 0
25 | GGCAGAUAUCAGCACAGCUUGGCAAAGUGGCUGUGGCUAGACUGCC [G7U C8A A12G G19U] | 0.1
26 | GGCUGAGCUCAAGACAGCGUGGCAAAGUGGCUGUGGCGAGACUGCC [A4U C13G U38G] | 0.04
27 | GGAAGAGCUCAACACAGCGUGGCAAAGUGGCUGUGGGUAUACUGCC [C3A C37G G40U] | 0.23
28 | GGCAGAGCAUAACAAAGCGUGGCAAAGUGGCUGUGGCUAGACUGCC [U9A C10U C15A] | 0.05
29 | GGCAGAGCUCAACACAGCGUGGCAAAGUAGCUGUCACUAGACUGCC [G29A G35C G36A] | 0.06
30 | GGCAGAGCUCGACACAGCGUGGCAAAUUGGCUGUGGAUAGACUGGC [A11G G27U C37A C45G] | 0
31 | GGCAGAGCUCAACACAGCGUGGCAAAGUGGCUGUGUCUAGACAGUC [G36U U43A C45U] | 0.17
32 | GGCAGGGCUCAACACAGCGUGGCUAAGUGGCUGUGGCUAUACUGCA [A6G A24U G40U C46A] | 0.26
33 | GGCUGAGCUCAACACAGCGUGGCAAAGUGGCUCUGGCUAGACUGAC [A4U G33C C45A] | 0.02
34 | GUCGGAGGUCAACACAGCGUGGCAAAGUGGCUGUGGCUAGACUGCC [G2U A4G C8G] | 0.58
35 | GGCAGAGCUCAACACAGCGUGGCAAAUUGGCUGGGGCUACACUGCC [G27U U34G G40C] | 0.01
36 | GGCAGAGCUCAACACAGCGUGGCAAUGUGGCUGUGACUAGACUGUC [A26U G36A C45U] | 0.12
37 | GGCAGAGCUAGACACAGCGUGGCAACGUGGCUGUGGCUAAACUGCC [C10A A11G A26C G40A] | 0.01
38 | AGCAGAGCUCAAUACAGCGUAGCAAAGUGGCUGUGGCUAGUCUGCC [G1A C13U G21A A41U] | 0.1

Row | Variant | self-cleavage
39 | GGCAGAGCUCAACACACCGUCGGAAAGUGGCUGUGGCUAGUCUGCC [G17C G21C C23G A41U] | 0.32
40 | GGUAGAACUCAACACAGCGUGGCAAAGUGGCUGUGGCUAGACUUCC [C3U G7A G44U] | 0.08
41 | GGCAGAGCUCAACAGAACGUGGCAAAGUGGCUGUGGCUAGACUGCU [C15G G17A C46U] | 0.16
42 | GGCAGAGUUCAAAACAGUGUGGCAAAGUGGCUGUGGCUAGACUGCU [C8U C13A C18U C46U] | 0.08
43 | GGCAGAGCUCAACCCAUCGUGGAAAAGUGGCUGUGGCUAGACUGCC [A14C G17U C23A] | 0
44 | GGCGGAGCUCAACACAGCGUGGCAAAGUUCCUAUGGCUAGACUGCC [A4G G29U G30C G33A] | 0.02
45 | GGCCGAGCUCAACACAGCGUGGAAAAGUAGCAGUGGCUAGACUGGC [A4C C23A G29A U32A C45G] | 0.04
46 | GCCAGAGCUCCACACAGCGUGGCAAAGUGUCUGUGUCUAGACUGCC [G2C A11C G30U G36U] | 0.02
47 | GGAAGAGCUCAACACCGCGUGGCAAAGUGGCGGUGGCCAGACUGCC [C3A A16C U32G U38C] | 0.08
48 | GGCAGAGCUCACCUCGGCGUUGCAAAGUGGCUGUGUCUAGACUGCC [A12C A14U A16G G21U G36U] | 0.01
49 | GGCGGAUCUCAACACAGCGUGGCAAACUGGCUGUGGCUAGACUGCC [A4G G7U G27C] | 0.08
50 | GUAAGAGCUCAAAAUAGCGUGGCAACGUGGCUGUGGCUAGACUGCC [G2U C3A C13A C15U A26C] | 0.11
51 | GGCAGAGAUUAACACAGCGUGGCAAAGUGUCUGUGGCUAGACUGCC [C8A C10U G30U] | 0.24
52 | GGCAGAGCUCAACACAGAGUGGCAAAGUGGCUUUGGAUAGACUGCC [C18A G33U C37A] | 0.07
53 | GGCAGAGUUCAACACAGCGUGGCAAAGUGGCUUUUUCUAGACUGCC [C8U G33U G35U G36U] | 0.02
54 | GACAGAGCUCAACAGAGCGUGGCAAAGUUGCUGUGGCUAGACUGCC [G2A C15G G29U] | 0.04
55 | GGCAGAGAUCCACACAGCGUUAUAAAGUGGCUGUGGCUAGACUGCC [C8A A11C G21U G22A C23U] | 0.02
56 | GGCAGAGAUCAACACAGCGUGGCAAACUGGCUGUGACUAGACUGCC [C8A G27C G36A] | 0.12
